In the GPR68 mutational scans of Howard et al. (2025):
Scores with a large standard error are left out. The source holds two more conditions with little spread; they are left out. In variant names, del marks residues removed and ins residues inserted between the two positions. For part of these data: How much ogerin was present is not stated here.

B1: GPR68, Q15743 (parent)
chain: MGNITADNSSMSCTIDHTIHQTLAPVVYVTVLVVGFPANCLSLYFGYLQIKARNELGVYLCNLTVADLFYICSLPFWLQYVLQHDNWSHGDLSCQVCGILLYENIYISVGFLCCISVDRYLAVAHPFRFHQFRTLKAAVGVSVVIWAKELLTSIYFLMHEEVIEDENQHRVCFEHYPIQAWQRAINYYRFLVGFLFPICLLLASYQGILRAVRRSHGTQKSRKDQIQRLVLSTVVIFLACFLPYHVLLLVRSVWEASCDFAKGVFNAYHFSLLLTSFNCVADPVLYCFVSETTHRDLARLRGACLAFLTCSRTGRAREAYPLGAPEASGKSGAQGEEPELLTKLHPAFQTPNSPGSGGFPTGRLA

Key:
[1] = variants of: B1; experiment: cAMP reporter score (Enrich2 score, wild type = 0); higher = more signal; HEK293T, FACS bins
[2] = variants of: B1; experiment: surface expression score (Enrich2 score, wild type = 0); higher = more signal; HEK293T, FACS bins

## MGNITADNSSMSCTIDHTIHQTLAPVVYVTVLVVGFPANCLSLYFGYLQIKARNELGVYLCNLTVADLFYICSLPFWLQYVLQHDNWSHGDLSCQVCGILLYENIYISVGFLCCISVDRYLAVAHPFRFHQFRTLKAAVGVSVVIWAKELLTSIYFLMHEEVIEDENQHRVCFEHYPIQAWQRAINYYRFLVGFLFPICLLLASYQGILRAVRRSHGTQKSRKDQIQRLVLSTVVIFLACFLPYHVLLLVRSVWEASCDFAKGVFNAYHFSLLLHSFNCVADPVLYCFVSETTHRDLARLRGACLAFLTCSRTGRAREAYPLGAPEASGKSGAQGEEPELLTKLHPAFQTPNSPGSGGFPTGRLA [T275H]
[1]; pH 5.5
  cAMP reporter score: -1.76
[1]; pH 6
  cAMP reporter score: -1.5
[1]; pH 6, modulator: ogerin
  cAMP reporter score: -1.71
[1]; pH 6.5, modulator: ogerin
  cAMP reporter score: -1.38
[2]
  surface expression score: -1.89

## MGNITADNSSMSCTIDHTIHQTLAPVVYVTVLVVGFPANCLSLYFGYLQIKARNELGVYLCNLTVADLFYICSLPFWLQYVLQHDNWSHGDLSCQVCGILLYENIYISVGFLCCISVDRYLAVAHPFRFHQFRTLKAAVGVSVVIWAKELLTSIYFLMHEEVIEDENQHRVCFEHYPIQAWQRAINYYRFLVGFLFPICLLLASYQGILRAVRRSHGTQKSRKDQIQRLVLSTVVIFLACFLPYHVLLLVRSVWEASCDFAKGVFNAYHFSLLLGSFNCVADPVLYCFVSETTHRDLARLRGACLAFLTCSRTGRAREAYPLGAPEASGKSGAQGEEPELLTKLHPAFQTPNSPGSGGFPTGRLA [T275G]
[1]; pH 5.5
  cAMP reporter score: -1.2
[1]; pH 6
  cAMP reporter score: -1.57
[1]; pH 6.5, modulator: ogerin
  cAMP reporter score: -0.977

## MGNITADNSSMSCTIDHTIHQTLAPVVYVTVLVVGFPANCLSLYFGYLQIKARNELGVYLCNLTVADLFYICSLPFWLQYVLQHDNWSHGDLSCQVCGILLYENIYISVGFLCCISVDRYLAVAHPFRFHQFRTLKAAVGVSVVIWAKELLTSIYFLMHEEVIEDENQHRVCFEHYPIQAWQRAINYYRFLVGFLFPICLLLASYQGILRAVRRSHGTQKSRKDQIQRLVLSTVVIFLACFLPYHVLLLVRSVWEASCDFAKGVFNAYHFSLLLFSFNCVADPVLYCFVSETTHRDLARLRGACLAFLTCSRTGRAREAYPLGAPEASGKSGAQGEEPELLTKLHPAFQTPNSPGSGGFPTGRLA [T275F]
[1]; pH 5.5
  cAMP reporter score: -1.6
[1]; pH 6
  cAMP reporter score: -0.191
[1]; pH 6.5, modulator: ogerin
  cAMP reporter score: -1.23
[2]
  surface expression score: -2.03
